Measurements: the supplement of paper PMC8047034
Structures can show the parent of a compound that is named as a salt. Some of the results follow. Most values come without repeats; read them as rough.

system: Ov4Carbo; assay: log2 surviving fraction (library drug vs vehicle, or drug + carboplatin vs carboplatin alone; relative to plate median); ovarian cancer lines: OVCAR4 is platinum-sensitive and Ov4Carbo platinum-resistant; higher = more cell survival; conditions: library drug concentration 10 µM; 7 days; carboplatin co-treatment 5 µM

SMILES	log2 surviving fraction
Nc1nc(O)c2ncn(CCC(CO)CO)c2n1 [Penciclovir]	0.459
CC1=C(/C=C/C(C)=C/C=C/C(C)=C\C(=O)O)C(C)(C)CCC1 [Isotretinoin]	-1.16
NCC[C@H](O)C(=O)N[C@@H]1C[C@H](N)[C@@H](O[C@H]2O[C@H](CN)[C@@H](O)[C@H](O)[C@H]2O)[C@H](O)[C@H]1O[C@H]1O[C@H](CO)[C@@H](O)[C@H](N)[C@H]1O [Amikacin sulfate]	1.59
Cc1cccc(Nc2ccncc2S(=O)(=O)NC(=O)NC(C)C)c1 [Torsemide (Demadex)]	-0.206
O=C1CC[C@@]2(O)[C@H]3Cc4ccc(O)c5c4[C@@]2(CCN3CC2CC2)[C@H]1O5 [Naltrexone HCl]	-0.184
NC(=O)c1cccnc1 [Nicotinamide (Niacinamide)]	0.47
OC[C@@H](O)[C@@H](O)[C@H](O)[C@@H](O)CO [Sorbitol (Glucitol)]	0.959
C=C1CC[C@H](O)C/C1=C/C=C1\CCC[C@]2(C)[C@@H]([C@H](C)CCCC(C)(C)O)CC[C@@H]12 [Calcifediol]	-1.18
CCCc1nc(C)c2c(=O)nc(-c3cc(S(=O)(=O)N4CCN(CC)CC4)ccc3OCC)[nH]n12 [Vardenafil (Vivanza)]	-0.00405
C[C@@](Cc1ccc(O)c(O)c1)(NN)C(=O)O [Carbidopa]	0.386
N#CC1(c2ccc(NC(=O)c3cccnc3NCc3ccncc3)cc2)CCCC1 [Apatinib (YN968D1)]	-0.716
N[C@@H](C(=O)N[C@@H]1C(=O)N2C(C(=O)O)=C(Cl)CS[C@H]12)c1ccccc1 [Cefaclor (Ceclor)]	0.0144
